Results: PubChem BioAssay AID1347071 (National Center for Advancing Translational Sciences (NCATS), 2019)
Hit rate of the full screen: of about 410,000 compounds, about 260 (0.063%) were called active. Inconclusive results, whose numbers are uncertain, are shown with a selection of clear calls. Calls follow the shape of the dose curve; as a rule, active = well fitted activation curve with a large enough effect; inconclusive = small, poorly fitted or top-dose-only effect; inactive = no such curve, though single readings can be large or run the other way. No potency is given beside an inconclusive call; the fits are too rough.

experiment: qHTS for compounds that reverse cellular toxicity of Amyloid beta (A-beta) peptide in yeast: Primary Screen; conditions: yeast expressing A-beta42, growth rescue, OD600, 48 h; growth rescue: at 46.1 µM (top of the series), 0% DMSO, 100% iron-clioquinol control; also: nearly all actives have a fitted effect of over 55% in size
Method in brief: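 Yeast A-beta toxicity model in growth medium with pinned compounds, 48 h at 30 C; growth read as absorbance at 600 nm. Normalized to FeCl3/clioquinol equimolar mix (positive) and DMSO (negative).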
Potency is read from the fitted curve at half-maximal effect; tags tell the direction and shape of the fitted curve.

Compound | Potency | growth rescue
O=C(COC(=O)c1ccc(F)cc1F)Nc1ccc(Cl)cn1 | inconclusive [activator, single point] | –
Cc1ccc(C(=O)c2cc([N+](=O)[O-])ccc2N2CCCCC2)cc1 | inconclusive [activator, full curve, poor fit] | –
CC(C)[C@@H]1N[C@]2(C(=O)Nc3ccccc32)[C@@H]2C(=O)N(c3cccc(C(F)(F)F)c3)C(=O)[C@@H]21 | inconclusive [activator, partial curve, poor fit] | –
O=C(NCc1cc(Cl)cc(Cl)c1)c1csc([C@@H]2C[C@H](O)[C@@H](CO)O2)n1 | – | inconclusive: -56.3% [activator]
Cc1ccc(C)c2[nH]c(=O)c(C(c3nnnn3CCc3ccccc3)N3CCOCC3)cc12 (configuration not stated) | inconclusive [activator, single point] | –
C=CCOc1ccc(/C=C/C(=O)OCC(=O)N(C)CC(=O)Nc2ccccc2Cl)cc1 | inconclusive [activator, single point] | –
Fc1ccccc1CNC(=S)NCc1ccc(Cl)cc1 | inconclusive [activator, partial curve, poor fit] | –
Cc1[nH]c2ccccc2c1SCCN | inconclusive [activator, single point] | –
CCC(=O)Nc1nc(-c2ccccc2)nc(SC)c1C(C)=O | inconclusive [activator, single point] | –
Cc1ccc(NC(=O)CCC(=O)N2CCSc3ccccc32)cc1Cl | inactive | –
COc1cc(C(=S)N2CCOCC2)cc(OC)c1OC(=O)c1ccc(C)cc1 | inconclusive [activator, single point] | –
O=C(NC(=S)NC1CCCCC1)c1ccccc1 | inconclusive [activator, partial curve] | –
COc1ccc(-c2nc3ccc(NS(=O)(=O)c4ccc(Cl)cc4)cc3o2)cc1 | inconclusive [activator, single point] | –
O=C(Nc1ccc(N2CCN(C(=O)c3ccco3)CC2)c(Cl)c1)c1c(F)c(F)c(F)c(F)c1F | inconclusive [activator, full curve, poor fit] | –
CCn1c2ccccc2c2cc(NC(=O)COc3ccccc3)ccc21 | inconclusive [activator, full curve, poor fit] | –
O=C(COc1ccc2c3c(c(=O)oc2c1)CCC3)N1CCN(c2ccc(F)cc2)CC1 | inactive | –
O=C(O)C(c1ccccc1)C(O)c1ccc2c(c1)OCO2 (configuration not stated) | inconclusive [activator, full curve] | –
CCOc1ccc(N(CC)S(=O)(=O)N2CCCC(C(=O)Nc3cc(Cl)ccc3OC)C2)cc1 (configuration not stated) | inactive | –
NS(=O)(=O)c1ccc2nc(NC(=O)c3ccc4ncsc4c3)sc2c1 | inconclusive [activator, single point] | –
CCc1cc2c(SC(C)C(=O)NC3CCCC3)ncnc2s1 (configuration not stated) | inactive | –
O=C1NC(=O)C(Cc2cccc(Oc3ccccc3)c2)S1 (configuration not stated) | inactive | –
CCOC(=O)N1CCN(C(c2cccnc2)c2ccc3cccnc3c2O)CC1 (configuration not stated) | inconclusive [activator, single point] | –
CN(CC(=O)Nc1ccc(F)cc1)C(=O)COC(=O)c1ccc(-c2ccccc2)cc1 | inconclusive [activator, full curve, poor fit] | –
CCOc1ccc(OCC)c(NS(=O)(=O)c2ccc(-c3coc(C)n3)cc2)c1 | inactive | –

Compound | Potency | growth rescue
Cc1cc(Br)cc(C)c1NC(=S)NC(=O)CC(C)C | inconclusive [activator, full curve] | –
COc1ccc(S(=O)(=O)Nc2ccc3c(c2)N(C(C)=O)CCC3)cc1F | inactive | –
O=C(CC[C@H]1O[C@@H](n2ccc(=O)[nH]c2=O)[C@H](O)[C@@H]1O)NCCc1c[nH]c2ccccc12 | inactive | –
CCOC(=O)CNC(=O)c1cc(-c2ccccn2)nc2c(C)c(Cl)ccc12 | inconclusive [activator, full curve] | –
CCOc1ccc(Sc2cc(C(=O)NC(C)c3ccccc3)c3ccccc3n2)cc1 (configuration not stated) | inactive | –
CC(C)(C)c1cc(C(=O)Nc2ccc(F)cc2)n(Cc2ccc(F)cc2)n1 | inconclusive [activator, partial curve, poor fit] | –
S=c1nc(-c2ccccc2)[nH]c2ccccc12 | inconclusive [activator, full curve] | –
CCc1ccc(OCc2ccc(C(=O)O)o2)cc1 | inconclusive [activator, full curve] | –
Cc1cc(C)c2c(CC(=O)N3CCN(c4cccc(Cl)c4)CC3)coc2c1 | inconclusive [activator, single point] | –
Cc1cc(/C(=N/O)C(C)(C)NO)ccc1Cl | inconclusive [activator, single point] | –
S=c1[nH]nc(COc2ccccc2)n1/N=C/c1cccc(Cl)c1Cl | inactive | –
Cc1ccc2c(c1)-c1cc(C)nn1C(c1sccc1C)N2 (configuration not stated) | inactive | –
Cc1cc(C)c2ccc(/C=N/O)nc2c1O | inconclusive [activator, partial curve, poor fit] | –
c1ccc2c(c1)OCC(c1csc3ncnc(N4CCCC4)c13)O2 (configuration not stated) | inactive | –
CCN(CC)S(=O)(=O)c1ccc2c(c1)c(=O)c(C(=O)N1CCN(c3ccc(F)cc3)CC1)cn2C | inactive | –
S=C(NCc1ccc(Cl)c(Cl)c1)NCc1ccco1 | inconclusive [activator, single point] | –
Cc1c(C(=O)N2CCN(c3cccc(Cl)c3)CC2)cccc1[N+](=O)[O-] | inconclusive [activator, single point] | –
Cc1ccccc1NC(=O)Cc1cccs1 | inconclusive [activator, partial curve, poor fit] | –
CCCOc1ccc(NC(=O)CC2C(=O)N(C)C(=S)N2Cc2ccc3c(c2)OCO3)cc1 (configuration not stated) | inconclusive [activator, partial curve, poor fit] | –
CCOc1ccccc1NC(=O)COc1coc(CN2CCc3ccccc3C2)cc1=O | inactive | –
CCOc1ccc(CCNC(=O)Cn2nc(-c3ccc(C)cc3)ccc2=O)cc1OCC | inactive | –
COc1cccc(NC(=S)Nc2cccc3ccccc23)c1 | inconclusive [activator, partial curve, poor fit] | –
COc1ccc(CNC(=O)c2cc3c(=O)oc4ccc(C)cc4c3s2)c(OC)c1 | inactive | –
Cc1cccc(NC(=O)C(=O)NCC(c2ccc3c(c2)OCO3)N2CCN(C)CC2)c1C (configuration not stated) | inactive | –

Compound | Potency | growth rescue
COc1ccc(C(=O)/C=C/c2ccc(OC)c(O)c2)c(F)c1 | inactive | –
CCN(CC)c1nc(N)c2c(N)n(-c3ccccc3C)c(=S)c(C#N)c2c1C#N | inactive | –
CCOC(=O)C1CC(c2ccc(Cl)cc2)=NNC1=O (configuration not stated) | inactive | –
CCOc1ccc(CN(C)C(=O)c2cc3ccccc3o2)cc1OC | – | inconclusive: -14.1% [activator]
NC(=S)C(c1ccccc1)c1ncc(C(F)(F)F)cc1Cl (configuration not stated) | inconclusive [activator, partial curve, poor fit] | –
Cc1cc(C)nc(-n2ncc3c2CC(c2ccccc2)CC3=O)n1 (configuration not stated) | inconclusive [activator, single point] | –
O=C(Nc1nc2ccc(Cl)cc2s1)c1cccc(N2C(=O)CCC2=O)c1 | inactive | –
CCOc1ccc(N(CC(=O)NCCSCc2ccccc2)S(=O)(=O)c2ccccc2)cc1 | inconclusive [activator, partial curve, poor fit] | –
C#CCn1c(=NC(=O)c2cc(Cl)sc2Cl)sc2cc(S(N)(=O)=O)ccc21 | inactive | –
COC(=O)c1cccc(Nc2nc(-c3cccnc3)nc3ccccc23)c1 | inactive | –
COc1ccc(S(=O)(=O)N(CCc2ccccc2)CC(=O)NCCCO)cc1 | inconclusive [activator, single point] | –
O=C(COc1cccc2ccccc12)Nc1nc2ccccc2[nH]1 | inconclusive [activator, partial curve, poor fit] | –
O=C(C1COc2ccccc2O1)N1CCN(c2ccccc2)CC1 (configuration not stated) | inconclusive [activator, single point] | –
COc1ccc(-c2cc(C(=O)c3c(N)n(C)c(=O)n(C)c3=O)c3ccccc3n2)cc1OC | inconclusive [activator, single point] | –
Oc1ccccc1C1N=C(c2ccccc2)NC(c2ccccc2)=N1 | inactive | –
Cc1cc(NC(=O)COC(=O)c2ccc(S(=O)(=O)N3CCCc4ccccc43)cc2)no1 | inconclusive [activator, partial curve, poor fit] | –
COc1ccccc1CNC(=O)CSc1ncc2c(n1)-c1cc(Cl)ccc1N(Cc1ccccc1)S2(=O)=O | inactive | –
CCc1cccc(C)c1NC(=O)C1CCN(S(=O)(=O)Cc2ccccc2)CC1 | inactive | –
CN(C)c1cccc(Oc2nc3c(c(=O)n(C)c(=O)n3C)n2C)c1 | inactive | –
O=C(Cn1c(=O)n(Cc2ccc(C(=O)NCc3ccccc3Cl)cc2)c(=O)c2ccccc21)Nc1ccc(F)c(Cl)c1 | inactive | –
CCCCOC(=O)c1ccc(Nc2nc3ccccc3c3nnc(C)n23)cc1 | inactive | –
COc1cc(/C=C/C(=O)c2ccc(O)cc2)ccc1OCC#N | inactive | –
O=C(CSc1nccn1Cc1ccc(F)cc1)Nc1ccc2c(c1)OCO2 | inactive | –
COc1ccc(/C=N/Nc2cc(C)nc(N3CCOCC3)n2)cc1 | inconclusive [activator, single point] | –
